The campaign covered roughly 52,000 compounds. About 1,700 (3.3%) were called active. Cut-off read from the data, not from the text of the source: active = survival mostly below about 52% (no sharp cut-off); inactive = mostly above about 56%. This is one part of the list.
System: Wild type
Test: growth inhibition of S. aureus wild type versus tarO mutant, primary screen, teichoic acid synthesis inhibitors, RN4220, OD600 (AID 463173)
Conditions: S. aureus RN4220 wild type/DeltatarO growth, OD600, 18 h, hits give low values, screened at 18.75 µg/mL (by protocol)

Structure (SMILES)	survival
CCOC(=O)c1c(C)n(CCNC(C)=O)c2cc(Br)c(OC)cc12	inactive: 104%
COc1ccc(Cl)cc1Nc1ncnc2c1c(-c1ccccc1)cn2-c1ccccc1	inactive: 152%
CC(C)(C)OC(=O)N1CCC(c2c(C(=O)NCc3cccs3)cnn2-c2ccc(F)cc2F)CC1	inactive: 81%
Cc1nc2c(C(=O)NCCc3ccccc3)cnn2c(C)c1Cc1c(F)cccc1Cl	inactive: 71%
Cc1c2cnn(CC(=O)NCc3ccc(F)cc3)c(=O)c2c(C)n1Cc1ccccc1F	inactive: 96%
COCCN1CCc2nc(SCC(=O)Nc3ccc(Br)cc3)[nH]c(=O)c2C1	inactive: 84%
CCOCCCNC(=O)c1cc2c(-c3ccc(OC)c(OC)c3)nn(C)c2s1	inactive: 81%
CC(C)(C)NS(=O)(=O)c1ccc2oc3ccc(S(=O)(=O)NC(C)(C)C)cc3c2c1	inactive: 104%
Cc1ccc(-n2cccn2)cc1	inactive: 113%
COc1ccc(NC(=O)Nc2sc3nc4n(c(=O)c3c2C)CCC(C)CC4)cc1OC (centres undefined)	inactive: 89%
Cc1noc(/C=C/N(C)C)c1S(=O)(=O)N1CCCC(C(=O)Nc2ccc(F)cc2F)C1 (centres undefined)	inactive: 76%
CCS(=O)(=O)c1ncc(Cl)c(C(=O)N2CCN(c3cccc(Cl)c3)CC2)n1	inactive: 18%
Fc1ccc(C(c2nnnn2Cc2ccccc2)N2CCSCC2)cc1 (centres undefined)	inactive: 105%
O=C(c1ccco1)N1CCN(C(c2coc3ccc(Cl)cc3c2=O)c2nnnn2C2CCCC2)CC1 (centres undefined)	inactive: 113%
CCN(CC)c1nc(-c2ccccc2)nc2ccccc12	inactive: 108%
Cc1ccc(NCc2ccccc2-c2nnc(-c3ccccc3Cl)o2)c(C)c1	inactive: 83%
NC(=O)C1(N2CCCCC2)CCN(C(=O)Nc2ccc(C(F)(F)F)cc2)CC1	inactive: 114%
Cc1ccc(CNS(=O)(=O)c2cc(C(=O)Nc3cccc(C(F)(F)F)c3)ccc2F)cc1	inactive: 112%
N#CC(Cc1cccs1)c1nc2ccccc2[nH]1 (centres undefined)	inactive: 107%
COc1ccc(S(=O)(=O)N2Cc3ccccc3CC2C(=O)N2CCOCC2)cc1OC (centres undefined)	inactive: 107%
Cc1cc(C)c2c(=O)cc(CSc3nnc(COc4ccccc4C)n3C)[nH]c2c1	inactive: 80%
C1CCCN(c2nc3nonc3nc2N2CCCCCC2)CC1	inactive: 93%
COc1ccccc1-c1cc(C(F)(F)F)nc(S(=O)(=O)CCCC(=O)Nc2cc(OC)c(OC)c(OC)c2)n1	inactive: 147%

Structure (SMILES)	survival
CCOC(=O)c1ccc(N2C(=O)c3n[nH]c(-c4cccs4)c3C2c2ccc(C(C)C)cc2)cc1 (centres undefined)	inactive: 92%
O=c1cc(-c2ccccc2)c2cc(Cl)c3c(c2o1)CN(Cc1ccccc1)CO3	inactive: 74%
COc1ccc(CC(=O)NCc2ccc3c(c2)CCN3C(=O)c2ccc(Cl)cc2)cc1OC	inactive: 93%
Cc1ccc2c(c1)c1c(c(=O)n(-c3ccccc3C)c(=O)n1CC(=O)NCc1ccccc1)n2C	inactive: 74%
CCc1cc2ccccc2nc1SCC(=O)N1CCCC1	inactive: 101%
Cc1ccc(OCCCn2c(CCNC(=O)C3CCCCC3)nc3ccccc32)c(C)c1	inactive: 95%
COC(=O)c1ccc(NCC(=O)c2ccccc2)cc1	inactive: 50%
CCOC(=O)c1c(Oc2ccc(OC)cc2)nnc(-c2ccccc2)c1-c1ccccc1	inactive: 91%
Cc1cc(-c2ccc(C)c(S(=O)(=O)N(C)c3ccc(C)c(C)c3)c2)on1	inactive: 68%
COc1ccccc1NC(=O)Cn1c(=O)n(Cc2ccco2)c(=O)c2cccnc21	inactive: 66%
O=S(=O)(c1ccccc1)N(c1cccnc1)S(=O)(=O)c1ccccc1	inactive: 103%
COc1ccc(OC)c(NC(=O)CN2C(=O)c3ccccc3Sc3ccc(C(=O)N4CCCC4)cc32)c1	inactive: 129%
COc1ccc(N(Cc2cccs2)C(=O)Nc2ccccc2)cc1	inactive: 82%
COc1ccc(-c2ccc(CNc3ccc4[nH]c(=O)[nH]c4c3)o2)cc1Cl	inactive: 89%
Cc1nn(CC(=O)NC2CCCCC2)c(=O)c2cc3cc(F)ccc3n12	inactive: 80%
CCc1ccc(Oc2nc3c(C)cccn3c(=O)c2/C=C(\C#N)c2nc3ccccc3[nH]2)cc1	inactive: 74%
Cc1ccc(-n2nc(C)c3c(C)cc(=O)n(CC(=O)Nc4ccc(Br)cc4F)c32)cc1	inactive: 135%
COc1ccc(S(=O)(=O)c2c(Nc3ccc(C)cc3)sc(C(=O)c3ccc(C)cc3)c2N)cc1	inactive: 119%
Cc1cc(=O)n2[nH]c(NCc3ccc(F)cc3)nc2n1	inactive: 111%
Cc1cccc(C(=O)NCC(c2ccc3c(c2)OCO3)N2CCN(c3ccccc3F)CC2)c1 (centres undefined)	inactive: 70%
COc1cc(-c2noc(CSc3nc(-c4ccccc4)cc(=O)[nH]3)n2)cc(OC)c1OC	inactive: 59%
COc1ccc(NC(=O)c2sc3nc4c(cc3c2N)CN(C(C)C)CC4)c(OC)c1	inactive: 86%
Cc1ccc(Cl)cc1NC(=O)Nc1c(C)n(C)n(-c2ccccc2)c1=O	inactive: 133%

Structure (SMILES)	survival
Cc1csc(NC(=O)c2c(O)c3cccc4c3n(c2=O)CCC4)n1	inactive: 113%
CCOC(=O)CSc1nc2ccc(NC(=O)c3ccc(F)cc3)cc2s1	inactive: 88%
O=C(CCCn1c(=O)c2cccn2c2ccc(F)cc21)NCCc1ccccc1	inactive: 55%
CCC(=O)NC1CCNCC1	inactive: 127%
O=C1COc2ccccc2N1Cc1ccc(OC(F)(F)F)cc1	inactive: 110%
NN(CCC(=O)N1CCCCC1)C1=NS(=O)(=O)c2ccccc21	inactive: 101%
COc1ccc(N/C=C\C(=O)c2ccc3c(c2)OCO3)cc1	inactive: 108%
COc1ccc(-c2noc(-c3ccc(NCc4ccco4)c([N+](=O)[O-])c3)n2)cc1	inactive: 82%
COc1ccc(NC(=O)Cn2cc(S(=O)(=O)c3ccc(C)cc3)c(=O)c3ccccc32)cc1OC	inactive: 96%
Cc1ccc(CSCC(=O)NCc2ccc(F)cc2)cc1	inactive: 90%
CCOc1ccccc1Nc1nc(-c2cccc(Cl)c2)c2c(n1)-c1ccccc1OC2	inactive: 83%
CCc1nnc(SCC(=O)N(C)c2ccccc2)c2cc3sccc3n12	inactive: 66%
Cc1cccc(N2C(=O)CS/C2=N/NC(=O)c2cccc(Cl)c2)c1	inactive: 115%
CCOC(=O)c1cccc(NC(=O)CCc2c(C)nc3cc(-c4ccc(Cl)cc4)nn3c2C)c1	inactive: 73%
CCCn1c(=O)n(-c2cc(Cl)c(OC)cc2OC)c(=O)c2c3c(sc21)CN(C(C)=O)CC3	inactive: 64%
Cc1cc(C)c(Cn2c(CCNC(=O)c3ccco3)nc3ccccc32)c(C)c1	inactive: 92%
CCC(Sc1nccn1C)C(=O)Nc1cc(C)on1 (centres undefined)	inactive: 110%
CCn1cc(CCC(=O)NCc2ccc(F)cc2)c2ccccc21	inactive: 77%
Cc1ccc([C@H]2Nc3ccc(S(=O)(=O)Nc4cccc(Cl)c4C)cc3[C@H]3C=CC[C@H]32)cc1	inactive: 71%
CCCCNS(=O)(=O)c1ccc(N)cc1	inactive: 104%
Cc1ccc(Nc2nnc(-c3ccc(C)c(S(=O)(=O)N4CCN(C)CC4)c3)c3ccccc23)c(C)c1	inactive: 93%
S=c1nc(Cc2cccs2)[nH]c2ccccc12	inactive: 117%
CCOc1ccccc1CNC(=O)C1CCN(C2=NS(=O)(=O)C(c3ccc(C)c(C)c3)=C2C)CC1	inactive: 82%

Structure (SMILES)	survival
CC1CC(C)CN(C(=S)Nc2ccccc2)C1 (centres undefined)	inactive: 125%
CCCN(C(=O)c1nn(-c2ccc(OC)c(Cl)c2)c(=O)c2c1c1ccccc1n2C)c1ccccc1F	inactive: 74%
Cc1ccccc1C(=O)NC1CCN(CC(=O)N2CCCCC2C)CC1 (centres undefined)	inactive: 98%
COc1ccc(NC(=O)c2ccc3c(=O)n4nc(Nc5cc(C)ccc5C)sc4nc3c2)cc1	inactive: 136%
COc1ccc(OC)c(NC(=O)Cn2cnc3sc(C)c(S(=O)(=O)N4CCN(c5ccccc5OC)CC4)c3c2=O)c1	inactive: 80%
Cc1ccc(-c2cnc(NC(=O)CCC(=O)N3CCCCC3)n2C)cc1	inactive: 110%
COc1ccc(C(=O)N2CCC(c3nc4ccccc4o3)CC2)cc1	inactive: 81%
CCOc1ccc(C(=O)NCCc2csc(-c3ccc(C(F)(F)F)cc3)n2)cc1OCC	inactive: 73%
COc1cccc(C(C(=O)NCc2ccco2)N(C(=O)Cn2nnc3ccccc32)C2CC2)c1OC (centres undefined)	inactive: 114%
CC(C)C(=O)Nc1cccc(C(=O)NCc2ccc3c(c2)OCO3)c1	inactive: 103%
COc1ccc(S(=O)(=O)c2c(Nc3ccc(F)cc3)sc(C(=O)c3ccc(C)cc3C)c2N)cc1	inactive: 124%
c1ccc(Cc2nnc(SCc3nc(-c4cccs4)no3)n2-c2ccccc2)cc1	inactive: 77%
Cc1ccccc1N1CCN(S(=O)(=O)c2nnc(NC(=O)c3ccccc3)s2)CC1	inactive: 48%
COc1ccc(C(=O)Nc2cc(C(C)C)c(O)c(S(=O)(=O)c3ccc(OC)cc3)c2C)cc1	inactive: 81%
CC(C)c1ccc2oc(-c3cc(NC(=O)c4cccs4)ccc3Cl)nc2c1	active: 7%
COc1cccc(NC(=O)c2sc3nc(C)c(C(=O)Nc4ccc(C)cc4C)c(-c4sccc4C)c3c2N)c1	inactive: 90%
O=c1c2oc3ccccc3c2n(Cc2cccc(F)c2)c(=O)n1Cc1ccco1	inactive: 62%
COc1ccccc1NC(=O)CCn1cnc2ccccc2c1=O	inactive: 76%
Cc1cccc(C)c1NC(=O)C(C)Sc1n[nH]c(-c2ccncc2)n1 (centres undefined)	inactive: 116%
Cc1ccc(Cl)cc1N1CCN(C(=O)C2CCCN(S(=O)(=O)c3ccc(Br)s3)C2)CC1 (centres undefined)	inactive: 132%

Reference: PubChem BioAssay AID463173 (ICCB-Longwood Screening Facility, Harvard Medical School, 2010)
